The assay has as its system 786-0 complex spheroid viability. As to the kind of experiment: Anticancer human tumor 786-0 cell line growth inhibition.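 Further: spheroids exposed to agents for seven days before readout.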 Particulars: stronger effect = lower value. The text has this: Multicellular complex tumor spheroid response to LSD1 Inhibitor Iadademstat in combination with a variety of drugs and investigational agents in selected tumor cell lines
The current study was undertaken to assess response to LSD1 inhibitors in combination with standard-of-care drugs and investigational agents in solid tumor complex spheroid models as well as in the K-562 leukemia. Complex spheroids include a stromal component modeled by human endothelial cells (HUVEC) and fibroblasts modeled by human mesenchymal stem cells (MSCs). The concentration ranges selected for each drug and investigational agent were based upon clinically achievable concentrations if the clinical Cmax of the agent was known.
Compounds. The drugs and investigational agents used in this study are listed on Table 1. All of the agents used, including staurosporine (NSC755774) and gemcitabine (NSC613327), were obtained from the Developmental Therapeutics Program, NCI. FDA-approved anticancer drugs are available from the NCI at http://dtp.nci.nih.gov/branches/dscb/oncology_drugset_explanation.html. Drugs and investigational agents were >95% pure by proton nuclear magnetic resonance (NMR) and liquid chromatography/mass spectrometry (LC/MS). […] If the clinical Cmax for an agent had not been determined, the highest concentration tested was 10 microM. […]

From PubChem BioAssay AID1918944 (Molecular Pharmacology Branch, DTP, NCI, 2023) come the findings set out here.

A number of entries come with more than one value. The list is limited to them. An entry can have further records. Results that share an entry repeat one measurement across runs, samples, wells, individuals or studies. Marks such as (2×) say how often a value occurs here.

Take `NC1CC1c1ccc(-c2cccc(O)c2)cc1` (configuration not stated): the viability, T/C reads like this: (compound alone 1 µM) 105 (2×), 118, 97.3, 113 (3×), 107, 103 (2×), 109 (2×), 106, 112, 101, 102, 96, 91.3, 108, 94.7, 114, 99.8, 110, 97.1, 117%; (compound alone 3.16 µM) 107 (2×), 110 (3×), 93.2, 86.8, 108 (2×), 97.2, 103 (4×), 97, 93 (2×), 95.4, 92.1, 93.8, 104, 116, 98.7, 90.3, 111%.
